To fix the notation:
B1: NB148-35 VHH-hFc (Fc fusion)
chain: EVQVVESGGGLVQPGGSLRLSCGVSGSILALNTMRWYRQTPGNQREWVASIYSSGGSTGYADSVKGRFIISRDSAKNMMSLQMNSLKSEDTAVYYCNVQTPLNVYWGQGTQVTVSS[human IgG1 Fc with changes not written out]
B2: NB149-31 VHH-hFc (Fc fusion)
chain: EVQVVESGGGLVQPGGSLRLSCAASGITFSGNYGGWFRQAPGEQRELVASMSSALGTKYADPVKGRFTISTDTAKNTVDLQMNSLGPEDTAVYYCYARVRLSRGGWGSEYWGQGTQVTVSS[human IgG1 Fc with changes not written out]
B3: NB148-27 VHH-hFc (Fc fusion)
chain: EVQVVESGGGLVQAGASLRLSCASSGRTISPIAMAWFRQAPGKERELVAGLTWTGRTYYSDSVKGRFTISRDNAKNTVYLQMDSLKFEDTAVYFCAAGDNPDRRGSSWSSSSVYEYWGQGTQVTVSS[human IgG1 Fc with changes not written out]
B4: NB148-88 VHH-hFc (Fc fusion)
chain: QLQLVESGGGLVQPGGSHRLSCAVSVSTFTRYAMRWYRQAPGKEREWLTSIYSDGSSAYADSVKDRFTISLDNAKNMLYLQMNSLKPEDTAVYYCNANVDSKAYWGQGTQVTVAS[human IgG1 Fc with changes not written out]

Consider four molecules from US20240124563A1 (NANJING ZAIMING PHARMACEUTICAL, published 2024).

One assay concerns the target T1, human MSLN-FL-his protein (human, UniProt Q13421 296-580).
T1 construct: Made in HEK293E cells, purified on nickel column; also called hMSLN-FL-his; not shown: histidine tag
The assay can be described thus: competitive ELISA on MSLN-FL-His; other antibody: NB149-95 (3.m11). On the technique in general: In an ELISA, binding on a coated surface is turned into a signal by an enzyme label.
Consider B1, for which the inhibition rate is -187%.
In the case of B2, the inhibition rate was 93%.
Same read-out and setting: to B3 belongs 82%.
On to B4, for which the inhibition rate is -22%.

A further assay concerns the target T1, human MSLN-FL-his protein. The assay is described as follows: competitive ELISA on MSLN-FL-His; other antibody: Tab108 (R3) (3.m14).
On to B1, for which the inhibition rate was -19%.
B2: the inhibition rate was 27%.
In the case of B3, the inhibition rate came out at 40%.
Still for that read-out and setting: for B4 the value was 79%.

The next assay addresses T2, human MSLN full-length protein, recombinant, on CHO-K1 or HEK293T cells (human, UniProt Q13421 296-598).
T2 construct: The background says that the precursor is cleaved by furin to the mature membrane form; also called hMSLN; CHO-K1-hMSLN-2C8
The assay is described as follows: competitive FACS on CHO-K1-human MSLN-2C8 cells vs Biotin-Tab142; competitor at 4 nM.
Take B1: the “MFI of Biotin-Tab142” value turned out to be 41200.
Regarding B2, the “MFI of Biotin-Tab142” value was 33600.
Turning to B3, the “MFI of Biotin-Tab142” value was found to be 40400.
On to B4, for which the “MFI of Biotin-Tab142” value is 43000.

The next assay concerns the target T2, human MSLN full-length protein, …. The assay is described as follows: competitive FACS on CHO-K1-human MSLN-2C8 cells vs Biotin-Tab142; competitor at 0.0064 nM.
Regarding B1, the “MFI of Biotin-Tab142” value was 39900.
For B2, the “MFI of Biotin-Tab142” value amounted to 43500.
For the molecule B3, the “MFI of Biotin-Tab142” value amounted to 41700.
Still for that read-out and setting: to B4 belongs 41700.

The next assay concerns the target T3, chimeric human MSLN-R3 / chicken MSLN-R1-2 protein on HEK293T cells (clone A5) (chicken; human).
T3 construct: range 327-514; Human R1-R2 replaced by chicken R1-R2; also called HEK293T-chickR1-2/hR3-A5; HEK293T-hR3/chickR1-2-A5
The assay can be described thus: FACS, HEK293T-hR3/chickR1-2-A5 cells, antibody 20 nM. In general terms: A flow cytometer gives signals particle by particle.
As to B1, the MFI was found to be 73.
Take B2: the MFI was found to be 74.
The same measure, in the same setting: to B3 belongs 93; to B4, 73.

A further assay concerns the target T2, human MSLN full-length protein, …. The assay can be described thus: FACS, HEK293T-hMSLN-B8 cells, antibody 0.2 nM.
On to B1, for which the MFI came to 1050.
For B2, the MFI stood at 1210.
In the case of B3, the MFI was 1670.
As for B4, the MFI was 1250.

The next assay has as its target T1, human MSLN-FL-his protein. The assay is described as follows: competitive ELISA on MSLN-FL-His; other antibody: NB148-88 (3.m6).
Regarding B1, the inhibition rate amounted to 92%.
Same read-out and setting: to B2 belongs -80%; to B3, -66%.
B4: the inhibition rate came out at 68%.

The next assay has as its target T2, human MSLN full-length protein, …. The assay can be described thus: competitive FACS on CHO-K1-human MSLN-2C8 cells vs Biotin-Tab142; competitor at 20 nM.
Turning to B1, the “MFI of Biotin-Tab142” value amounted to 41100.
With B2, the “MFI of Biotin-Tab142” value amounted to 25600.
As to B3, the “MFI of Biotin-Tab142” value worked out at 33100.
On to B4, for which the “MFI of Biotin-Tab142” value turned out to be 42600.

The next assay shares this target. The assay can be described thus: competitive FACS on CHO-K1-human MSLN-2C8 cells vs Biotin-Tab142; competitor at 0.16 nM.
As for B1, the “MFI of Biotin-Tab142” value turned out to be 42000.
Still for that read-out and setting: to B2 belongs 41000; to B3, 40500; to B4, 43200.

A further assay shares this target. The assay is described as follows: competitive FACS on CHO-K1-human MSLN-2C8 cells vs Biotin-Tab142; competitor at 100 nM.
Take B1: the “MFI of Biotin-Tab142” value came to 40600.
Same read-out and setting: for B2 the value was 17600.
As for B3, the “MFI of Biotin-Tab142” value came to 26000.
B4: the “MFI of Biotin-Tab142” value worked out at 45200.

The next assay addresses T1, human MSLN-FL-his protein. The assay can be described thus: competitive ELISA on MSLN-FL-His; other antibody: NB149-34 (3.m8).
For the molecule B1, the inhibition rate was 32%.
For the molecule B2, the inhibition rate worked out at 90%.
B3: the inhibition rate came out at 88%.
On the same count and under the same terms, for B4 the value was -24%.

The target of another assay is T1, human MSLN-FL-his protein. The assay can be described thus: SPR, antibody captured on Protein A chip, MSLN-FL-his injected, 1:1 model. For orientation: SPR reads the build-up and loss of mass on a sensor chip optically.
T1 sequence (Q13421 other isoform, or with tags, fused parts or gaps): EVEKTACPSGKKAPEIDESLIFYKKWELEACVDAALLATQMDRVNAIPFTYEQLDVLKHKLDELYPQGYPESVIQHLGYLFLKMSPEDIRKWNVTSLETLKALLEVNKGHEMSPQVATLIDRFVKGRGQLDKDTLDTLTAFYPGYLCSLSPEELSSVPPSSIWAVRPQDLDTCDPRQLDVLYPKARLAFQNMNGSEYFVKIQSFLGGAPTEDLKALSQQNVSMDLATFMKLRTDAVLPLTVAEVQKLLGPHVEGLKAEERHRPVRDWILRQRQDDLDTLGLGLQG
B1 displayed a dissociation constant (Kd) of 5.31 nM, a koff of 0.00131 s⁻¹ and a kon of 247000 M⁻¹ s⁻¹.
For B2, in that order: 0.861 nM, 0.00112 s⁻¹ and 1.3e+06 M⁻¹ s⁻¹.
Molecule B3 gave a Kd of 9.39 nM, a koff of 0.00136 s⁻¹ and a kon of 144000 M⁻¹ s⁻¹.
In the case of B4, the Kd amounted to 2.45 nM, the koff worked out at 0.00123 s⁻¹ and the kon was found to be 499000 M⁻¹ s⁻¹.

In another assay the target is T1, human MSLN-FL-his protein. The assay can be described thus: competitive ELISA on MSLN-FL-His; other antibody: NB148-35 (3.m4).
Turning to B1, the inhibition rate amounted to 86%.
On to B2, for which the inhibition rate is -71%.
Regarding B3, the inhibition rate is -28%.
Consider B4, for which the inhibition rate amounted to 53%.

For another assay, the target named is T1, human MSLN-FL-his protein. The assay is described as follows: competitive ELISA on MSLN-FL-His; other antibody: NB148-46 (3.m5).
Regarding B1, the inhibition rate is 16%.
Take B2: the inhibition rate was determined as 87%.
On the same count and under the same terms, for B3 the value was 78%; for B4, -21%.

For a further assay, the target named is T2, human MSLN full-length protein, …. The assay can be described thus: FACS, HEK293T-hMSLN-B8 cells, antibody 20 nM.
B1: the MFI came to 29700.
As for B2, the MFI came to 24800.
As to B3, the MFI turned out to be 24800.
Regarding B4, the MFI stood at 30600.

The target of another assay is T1, human MSLN-FL-his protein. The assay can be described thus: competitive ELISA on MSLN-FL-His; other antibody: Tab142 (R1) (3.m16).
For B1, the inhibition rate is -129%.
Same read-out and setting: to B2 belongs 97%; to B3, 75%; to B4, 14%.

In the next assay the target is T1, human MSLN-FL-his protein. The assay is described as follows: competitive ELISA on MSLN-FL-His; other antibody: NB148-27 (3.m3).
On to B1, for which the inhibition rate was -12%.
B2: the inhibition rate was determined as 95%.
With B3, the inhibition rate came out at 59%.
In the case of B4, the inhibition rate was 23%.

Another assay addresses T1, human MSLN-FL-his protein. The assay can be described thus: competitive ELISA on MSLN-FL-His; other antibody: NB148-13 (3.m1).
Consider B1, for which the inhibition rate was found to be 79%.
On to B2, for which the inhibition rate was determined as 34%.
Regarding B3, the inhibition rate is -108%.
With B4, the inhibition rate came to 77%.

For the next assay, the target named is T1, human MSLN-FL-his protein. The assay can be described thus: competitive ELISA on MSLN-FL-His; other antibody: Tab107 (C) (1.m4).
With B1, the inhibition rate was -290%.
For B2, the inhibition rate is 70%.
As to B3, the inhibition rate turned out to be 28%.
Turning to B4, the inhibition rate came out at 25%.

For a further assay, the target named is T4, human MSLN protein endogenously expressed on tumor cells (Hela, OVCAR3) (human, UniProt Q13421 296-598).
T4 construct: whole, on cells
The assay is described as follows: FACS, OVCAR3 cells, antibody 2 nM.
For the molecule B1, the MFI came to 7480.
Molecule B2 came in with an MFI of 6090.
B3 displayed an MFI of 1600.
Still for that read-out and setting: for B4 the value was 7140.

The target in a further assay is T2, human MSLN full-length protein, …. The assay can be described thus: competitive FACS on CHO-K1-human MSLN-2C8 cells vs Biotin-Tab142; competitor at 0.00128 nM.
In the case of B1, the “MFI of Biotin-Tab142” value came out at 41000.
Take B2: the “MFI of Biotin-Tab142” value amounted to 40500.
Turning to B3, the “MFI of Biotin-Tab142” value came out at 41000.
With B4, the “MFI of Biotin-Tab142” value came out at 41100.

Another assay shares this target. The assay is described as follows: competitive FACS on CHO-K1-human MSLN-2C8 cells vs Biotin-Tab142; competitor at 0.8 nM.
For the molecule B1, the “MFI of Biotin-Tab142” value worked out at 43200.
Take B2: the “MFI of Biotin-Tab142” value amounted to 39800.
B3: the “MFI of Biotin-Tab142” value was 41700.
With B4, the “MFI of Biotin-Tab142” value is 42000.

What is called Kd is the concentration at which binding is half-saturated. A higher Kd goes with a looser complex. In general, koff refers to the rate constant with which the complex falls apart. Read a high koff as a short-lived complex. A word on the kon: it is the second-order rate constant of association. A lower kon goes with slow association.
